Results on 14 molecules are retold here after paper PMC12136788.

First the molecules themselves.
B1: chr17:65740002:65740003:+_ENSG00000130935_ENST00000581375|hu_hu|hu_hu_hu_mus_False|98_98 (ssRNA)
RNA: GGGAGUUCUACAGUCCGACGAUCAACAAAUCUUUCUCUGGAUGAAGAACAGGAAGAUUCAUAUUAAAAAAAAUAUAUAUCCAUCAAGUUAGGUGUGGUGGCCACACCUUUACUCCCAGCACUUUGGGAGGUGGAUCUCUGAGUCAACAGAGGAUUGAGCAUCA
B2: chr8:101932826:101932827:-_ENSG00000164924_ENST00000353245|hu_hu|motif|central (ssRNA)
RNA: GGGAGUUCUACAGUCCGACGAUCAAAUAUAGAAAUUCAAAUAGAAGUAACAUAAACCUGUCAUAAAUCGUAAACAAAAAACGGUUUGUGGGACAGCAUGGAUGACAAAUGGUCUACUGUGUAAAUUUUAGAAUGAGGCAGACACAACAGAGGAUUGAGCAUCA
B3: 39311740_39317387_1035_3pUTR_ENSG00000116954_ENST00000373001|human|control|control (ssRNA)
RNA: GGGAGUUCUACAGUCCGACGAUCACUUCCAUCUUCCUUUAACCCAUAUAUACAAGACACAUCAAUUACAACAUCGAUCAUGUCACAGCAAAGUUCAUAAGAUUGCAUAUCCACAGGGGAACUGUCUGUUGCAAUGUAGAUUUUCAACAGAGGAUUGAGCAUCA
B4: chr16:94664741:94664742:+_ENSMUSG00000040785_ENSMUST00000117648|mus_hu|mus_mus_mus_hu_False|48_48 (ssRNA)
RNA: GGGAGUUCUACAGUCCGACGAUCUGGUACUGAUCUUGGUAGCUGAUAUUCAGGAGAAAGGCUGGCCAAGGGUGUAUAUAUGCUGGUGAACUGCGACAAACCUGGUAACACGUUUAUGUAUGCUGGCGGUGUCUGGGUGAUAUCCAACAGAGGAUUGAGCAUCA
B5: chr11:4127340:4127341:+_ENSG00000167325_ENST00000300738|hu_mus|hu_hu_hu_mus_False|68_98 (ssRNA)
RNA: GGGAGUUCUACAGUCCGACGAUCGGCAUAGUCAGGGUGCUUAGUAGUCAAGGUCGCGGCUGUCUCAGCAGCCAAAGUGUCCAGUUCCACUGUGGUGACCCCACUAUAUAGGCCUUGGAUUACUUUCAUGGUGAUCUGAGCAGGCAACAGAGGAUUGAGCAUCA
B6: 46766122_46771938_5780_CDS_ENSG00000175216_ENST00000415402|human|control|control (ssRNA)
RNA: GGGAGUUCUACAGUCCGACGAUCGAUGCCUGUUGAAGUGGAAAUACGACCUUUGCCCUCCCUCUCCAUCUCAAUCACCCGAAGGCCUCUUUCGACAUAGCUCUGGAAGAACUGUGAGGAAUUUUUCAGAAAUGGUUCAAUGUCCAACAGAGGAUUGAGCAUCA
B7: chr5:139930402:139930403:-_ENSG00000213523_ENST00000336283|hu_hu|motif|central (ssRNA)
RNA: GGGAGUUCUACAGUCCGACGAUCUUCAUUGGCUGCCUCCUCUGAAAACAGACUCCUCUUUUCUGCAAUUAAUCUUUUAACUCCGGCCAUCCACUGACUGACCUCAGUCACAUGGUCAACCAUGAGGGAGCGGUGGAUGUCAUCCAACAGAGGAUUGAGCAUCA
B8: chr16:2011185:2011186:+_ENSG00000140990_ENST00000268668|hu_hu|FALSE|FALSE (ssRNA)
RNA: GGGAGUUCUACAGUCCGACGAUCCACGCGGCGGUACUGCCGGUGGUAGUAGUAAUACCUGUUCUUUGCGUGCUGCCGCUCUAUAAAUUCUCUCACGAGGGUCACGGGUCGGUCCACGAUGAGGUCGAACGCUUUCAUCAUGUACAACAGAGGAUUGAGCAUCA
B9: 119774456_119774576_728_3pUTR_ENSMUSG00000030172_ENSMUST00000032279|mouse|control|control (ssRNA)
RNA: GGGAGUUCUACAGUCCGACGAUCAAGCUUCAUCUUUUCUCAAGGCCCGCUCUUUCUUUAACUCUGGGCUCCAGAAGGUCUUGAUACUAUUCAUUGAUGAACUUAAUUUGCUCUCCUUUACUUCCACAUCUUUCCUCAAAAGAUCAACAGAGGAUUGAGCAUCA
B10: chr1:23884524:23884525:-_ENSG00000117318_ENST00000374561|perfect_dup|motif|central (ssRNA)
RNA: GGGAGUUCUACAGUCCGACGAUCUUUAAUAUACAUCACAUGAUUACAGAAAGUCACCUUCCUGUAAAAAAGGUACAAAAGCGGUAUACUCUAUUAUAGAGUUCAUAAUCAGGGCAGCAGAGCUUUUCUCCAAGGAAACCAGAACAACAGAGGAUUGAGCAUCA
B11: 93417266_93420901_1308_CDS_ENSG00000166004_ENST00000325212|human|control|control (ssRNA)
RNA: GGGAGUUCUACAGUCCGACGAUCUGUCCAGAGAGAUUUUUGGCUUCGGAUCUUAUUUAAUAAUUUUUUAAAAAGAACUUUUGAAGGAAUCUGUUGGGUCUUCAUUACCAAGGGAACAUCUGUUUCACUAGAACAUAUUUCAGCCAACAGAGGAUUGAGCAUCA
B12: 148538928_148539048_455_5pUTR_ENSG00000164168_ENST00000296582|human|control|control (ssRNA)
RNA: GGGAGUUCUACAGUCCGACGAUCGGAGCCCUGUUCUCUGGCUGUUUUGUCAACUCGCAUACUACGGAGAAAAAGCUGUCGGGCGACUUUACGAACAGCUCGAGCCGCCUCCUGGACCGGCGCUGUGUCUUCUGCUGCUGCUGCCAACAGAGGAUUGAGCAUCA
B13: chr1:220276048:220276049:+_ENSG00000067704_ENST00000302637|hu_hu|hu_hu_hu_mus_True|18_58 (ssRNA)
RNA: GGGAGUUCUACAGUCCGACGAUCGCAAAUUGCCUGGUUGGCGGGAAUUGUCCAAGGCUGGGUGGUCCAAACUAAAAUACUAACAGGGGAUGAGGCAUCUGUAAGAGACUCCAACUUUGGAGAAGGCCUCAGGAGGGGGAAUCUCAACAGAGGAUUGAGCAUCA
B14: chr7:135612270:135612271:-_ENSG00000105887_ENST00000393085|hu_mus|hu_hu_hu_mus_False|1_1 (ssRNA)
RNA: GGGAGUUCUACAGUCCGACGAUCGUUUUUUUCUGAGAUGUUAAAUAGUACUUCAGUGGAAAACAAAACUUAACCUUUUAUUAAUGCGUGUUGUACCAAAAGCAGACAUUUUAGCUUCAUUUAUUCAAAAAUAUUAAGAACAUUCAACAGAGGAUUGAGCAUCA

This is one part of the list.

The assay concerns the target T1, UNK ZnF1-3 (human, UniProt Q9C0B0 31-174).
T1 sequence: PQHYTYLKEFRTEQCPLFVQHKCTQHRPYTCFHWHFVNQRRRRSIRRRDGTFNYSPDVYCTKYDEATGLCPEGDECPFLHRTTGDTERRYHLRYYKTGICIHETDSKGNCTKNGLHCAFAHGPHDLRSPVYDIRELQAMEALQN
Put plainly: nsRBNS (natural sequence RNA bind-n-seq); RBNS binding buffer (assumed for nsRBNS): 25 mM Tris pH 7.5, 150 mM KCl, 3 mM MgCl2, 0.01% Triton X-100, 500 ug/ml BSA, 20 U/ml SUPERase-In, 4 C; UNK is unkempt and MSI1 is Musashi-1; names of the RNAs are library labels; protein concentration not given here; high values mean tight binding.
In turn, B1 displayed a binding signal of 1.56 enrichment R.

B2: the binding signal came out at 1.79 enrichment R.

Molecule B3 registered a binding signal of 1.08 enrichment R.

Turning to B4, the binding signal is 1.05 enrichment R.

For the molecule B5, the binding signal amounted to 0.898 enrichment R.

In turn, B6 had a binding signal of 0.956 enrichment R.

With B7, the binding signal came out at 0.719 enrichment R.

In turn, B8 yielded a binding signal of 0.37 enrichment R.

In turn, B9 displayed a binding signal of 0.382 enrichment R.

On to B10, for which the binding signal was 0.905 enrichment R.

For B11, the binding signal was 2.54 enrichment R.

Molecule B12 yielded a binding signal of 0.698 enrichment R.

Molecule B13 had a binding signal of 2.91 enrichment R.

B14 showed a binding signal of 0.925 enrichment R.
